# Screen size: about 150,000 compounds; about 540 (0.36%) showed an effect of 50% or more. This is one part of the list.
# System: Plasmodium falciparum
# Experiment: Primary screen in NF54 nanoGlo assay, in single point, at 2uM, 72h; a lower Z score goes with more inhibition
# Type: functional, Erythrocyte
# Conditions: timepoint 72 hour
Structure (SMILES),% Inhibition [%],Z score
Cc1noc(C)c1CS(=O)(=O)CC(=O)NC[C@H]1CCCO1,-8,1.55
CN(Cc1csc(-c2ccccc2)n1)C(=O)c1cn(C2CCCCC2)nn1,-12,1.76
CC(C)(C)C(=O)NCCC(=O)N(CC(F)(F)F)c1ccccn1,3,-0.4
COc1nc2c(cc1CNC(=O)c1ccco1)C(=O)N(C1CCCC1)C2,-7,0.94
COc1ccc(COCC(=O)N2CC(CC#N)C2)cn1,7,-1.34
CCc1nn(-c2ccccc2)c(CC)c1CNC(=O)N1CC(C)C(C)(CO)C1 (stereo unspecified),-12,1.66
Cc1cccc(CNc2nc(C)c(-c3ccn(CCO)n3)s2)c1,-3,0.34
Cc1cccc(CN2CCC[C@@]3(CCN(C(=O)c4c(C)noc4C)C3)C2)c1,-9,1.18
CNCc1cccc(Br)c1OC,-1,0.17
CCC(CC)(CC(=O)O)NC(=O)[C@@H]1CCC=CCCC1,-1,0.15
CCn1ncc(S(=O)(=O)N[C@@H]2COCC[C@@H]2OCC=C(C)C)c1C,3,-0.47
COCC(=O)N1CCC[C@@]2(CCN(C3CCCCCCC3)C2)C1,-5,0.75
CCCn1nnnc1CNc1cccc(C)c1C(N)=O,0,0.06
CC(C)[C@H](Cn1nccn1)NS(=O)(=O)CCC(F)(F)F,-3,0.62
CCc1ocnc1C(=O)N1CCC[C@H]1C(=O)Nc1ccc(-c2cscn2)cc1,-7,0.65
COC(=O)CCNC(=O)c1nn(CC2CC2)c2c1CN(Cc1nc3ccccc3s1)CC2,2,-0.21
Cc1ccsc1CN(C)C(=O)c1n[nH]c(=O)[nH]1,0,0.02
Cc1cccc(NC(=O)c2sc(=S)n(C[C@H]3CCCO3)c2N)c1,1,-0.09
O=C(Nc1ccc([C@H]2OCC(=O)N(Cc3ccc(F)cc3)[C@@H]2CO)cc1)c1cnccn1,-10,1.48
CN(C(=O)c1ccc(CS(=O)(=O)c2ccccc2)o1)C1CCCC1,-6,0.87
Fc1ccc(-c2nc3ccc(-c4ccc5c(c4)OCO5)cc3o2)c(F)c1F,1,-0.1

Structure (SMILES),% Inhibition [%],Z score
CCN1c2cc(C)ccc2-n2cccc2C12CCN(C(=O)NCc1cccc(OC)c1)CC2,-9,1.19
CC(C)=CCCC(C)NC[C@H]1CCCN1S(C)(=O)=O (stereo partly specified),-7,1.25
COCC1(C(=O)N2CCC[C@H](c3nccn3Cc3ccccc3)C2)CCC1,-2,0.26
CC[C@H](C)N(Cc1c(-c2ccccc2)noc1N1CCC(C)CC1)C(=O)c1cccs1,-2,0.27
CCCNC(=O)N1CC(Cc2nc(-c3cccnc3)no2)C1,-4,0.68
Cc1cccc(-c2nc(Cn3cnc4nc5c(cc4c3=O)C[C@@H](C)CC5)c(C)o2)c1,-6,0.73
Cc1cc(C)n2ncc(-c3noc(CCC(=O)c4ccccc4)n3)c2n1,-11,1.54
O=C(NCC1=CCN([C@@H]2C=CCCC2)CC1)c1cccc(Cl)c1,-2,0.36
Cc1ccc(CC2CN(C(=O)NCc3ccc4cncn4c3)C2)cc1,-14,1.59
CC(C)[C@H](C)NC(=O)Nc1cccc(OC(F)F)c1,1,-0.13
O=C(CN(C(=O)c1ccc(Cl)cc1Cl)C1CC1)N(CCc1c[nH]c2ccccc12)Cc1ccc(Cl)cc1,-7,1
C[C@@H](c1ncc(-c2ccccc2)o1)N1CCN(Cc2ccccn2)CC1,-11,2.04
COc1ccc(-c2c(-c3cccc(OC)c3)[nH]c3c2c(=O)[nH]c(=O)n3C)cc1,90,-8.97
Cc1nc(N2C(=O)N(C)C3(CCCC3)C2=O)oc1C,3,-0.31
CN1CC[C@H]2CC[C@@H](C1)N2Cc1cc(C#N)n(C)c1,14,-1.3
Cc1nc2c(C(=O)N[C@@H]3CCCOC3)ccnc2[nH]1,-3,0.29
O=C(O)[C@H]1CN(Cc2cncn2Cc2ccccc2)C[C@@H]1C1CC1,1,-0.28
Cc1ccnc(NC(=O)Cc2c(C)nc(C)[nH]c2=O)c1,-11,1.21
CCN(Cc1cnn(CC)c1)C(=O)[C@@H]1CCCCC(=O)N1Cc1ccccc1,-5,0.53
O=C(Cc1cc2c(ccc3ccccc32)o1)N[C@H]1CCS(=O)(=O)C1,31,-3.48
CC(Cn1cncn1)NC(=O)N1CC(N2CCOCC2)CC1C (stereo unspecified),2,-0.25

Structure (SMILES),% Inhibition [%],Z score
Cc1nc2c(C#N)cnn2c2c1CCN2Cc1ccco1,-2,0.24
Cc1ccc(-n2nc(C(=O)NCc3ccccn3)c(=O)n(Cc3ccccc3)c2=O)cc1F,-13,1.57
O=C(C[C@@H]1CCNC[C@@H]1Cc1cc(COc2ccccc2)on1)Nc1ccccc1,33,-3.75
Cc1c(NC(=O)c2ccccc2C(=O)c2ccc(Cl)cc2)c(=O)n(-c2ccccc2)n1C,8,-1.14
CCOc1ccccc1[C@H]1C2CCCCC2(O)CCN1CC(N)=O (stereo partly specified),-3,0.35
COc1cccc(NC(=O)c2c([O-])n(-c3cccc(OC)c3)n[n+]2CC#N)c1,-20,2.33
CNC(=O)Cn1nc(C(=O)N2CCO[C@H](C(=O)N3CCCCCC3)C2)cc1C,2,-0.25
Cc1cnc(C(=O)N[C@@H]2CCC[C@@H]2C(=O)N2CCN(C(=O)c3ccco3)CC2)cn1,4,-0.47
O=C(COCC(=O)Nc1ccc2c(c1)CCC2)Nc1ccc2c(c1)CCC2,-14,1.26
Nc1nc(N2CCOCC2)ncc1C(=O)Nc1ccccc1,10,-1.22
O=C(NC(c1ccccn1)C(F)(F)F)C1CC(Cc2cccc(F)c2)=NO1 (stereo unspecified),14,-1.8
COc1ccccc1-c1nn(-c2cccc(F)c2)c(OC(C)=O)c1-c1ccc(NC(=O)c2ccccc2)cc1,-9,1.06
COc1ccc(NC(=O)COC(=O)c2cc(-c3ccc(Cl)c(Cl)c3Cl)nc3ccccc23)cc1S(=O)(=O)N1CCOCC1,-3,0.53
Cc1ncsc1Cn1ccn2nc(C(F)(F)F)cc2c1=O,15,-1.93
COc1ccc(N2CCN(Cc3cc(-c4ccc(Cl)cc4)no3)CC2)cc1,37,-4.83
CC(NCc1cncn1C)C(C)N1CCOCC1 (stereo unspecified),-1,0.11
Cc1cccc(C)c1NC(=O)N[C@H]1CCCC12OCCO2,11,-1.23
COCCN(Cc1cccs1)c1cc([C@H]2CCOC2)ncn1,-12,2.55
Cc1noc(C)c1C(C)NC(=O)N1CCCCC1CCO (stereo unspecified),-4,0.67
CC1CCC2(CC1)CC(=O)N(C[C@@H](O)CC(F)(F)F)C2=O (stereo partly specified),-6,1.11
COc1ccc(-c2noc(N3CCN(c4cc(Cl)ccc4C)CC3)n2)cc1OC,7,-1.14

Structure (SMILES),% Inhibition [%],Z score
Cc1ccncc1NC(=O)Cn1nc(C2CC2)ccc1=O,1,-0.1
CCCNC(=O)N1CCC2(CC1)C[C@@H](N1CCN(c3ccccn3)CC1)CCO2,-16,1.68
COc1ccc(C2=NN=C(n3nc(C)cc3C)c3ccccc3C2)cc1,-8,0.99
CCCCOCCNc1ccc(Br)cc1,-6,0.79
CCn1nc(C)c(CN2CC[C@](CCOC)(NS(=O)(=O)c3ccccc3)C2)c1C,-12,1.36
CN1CCN(C(=O)c2cn3ccccc3n2)CC1=O,1,-0.07
C=CCCS(=O)(=O)NCCN1CC(C)CC(C)C1 (stereo unspecified),0,-0.04
C[C@@H](CNS(=O)(=O)CCC(F)(F)F)c1ccc(F)cc1,0,-0.02
O=C(O)[C@@H]1CC2(CCN(C(=O)C3(c4ccccc4)CCCC3)CC2)CN1,-6,1.07
CCNC(=O)N1CCN(c2cc(Oc3cc(C)ccc3F)ncn2)C[C@@H]1C,-6,1
Cn1cc([C@@H]2CCCN2Cc2nccn2Cc2ccccc2)cn1,-5,0.74
Cc1cnccc1CN(C)[C@@H](C(=O)O)c1ccc2c(c1)OCCO2,-2,0.2
Clc1ccc2nc3c(c(-c4ccccc4)c2c1)CCCCC3,-2,0.31
COc1ccccc1CCNC(=O)N1CCCn2nc(C#N)cc2C1,-4,0.87
O=C(N[C@H]1CC12CCC2)c1cncs1,-15,2.05
CC(=O)N1CC[C@H](NC(=O)c2cccc(-n3cccn3)n2)c2ccc(F)cc2C1,0,-0.04
Cc1nccc([C@H](C)NC(=O)N2CCn3cncc3C2)n1,-6,0.59
Cc1cccc(OC[C@H](C)NC(=O)c2c(C)nc(C(C)C)[nH]c2=O)c1,-6,0.94
CC1CCN(S(=O)(=O)N2CCC(C(=O)N3CC[C@H](c4nc(C5CCOCC5)no4)C3)CC2)CC1,-22,2.8
CC(C)[C@H](NC(=O)c1ccc(C2CCOCC2)cc1)c1cnn(C)c1,-1,0.11

# Reference: ChEMBL document CHEMBL4888484, “Replenishing the malaria drug discovery pipeline: Screening and hit evaluation of the MMV Hit Generation Library 1 (HGL1) against asexual blood stage Plasmodium falciparum ,using a nano luciferase reporter read-out” (2022)
